Results from PubChem BioAssay AID1745845 (National Center for Advancing Translational Sciences (NCATS), 2022).
The campaign covered roughly 360,000 compounds. About 2,600 (0.72%) were called active. The inconclusive results got no clear call from the source; some entries with a clear call stand among them for comparison. Calls follow the shape of the dose curve; as a rule, active = well fitted inhibition curve with a large enough effect; inconclusive = small, poorly fitted or top-dose-only effect; inactive = no such curve, though single readings can be large or run the other way. Potencies of inconclusive entries are doubtful fits and often do not repeat.

Test: Primary qHTS for Inhibitors of ATXN expression; also: nearly all actives have a fitted effect of over 55% in size
Settings: HEK-293 ATXN2-luciferase reporter, luminescence, 24 h; series mostly up to 57 µM
How it was run: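 ATXN2-luciferase reporter cells (luciferase flanked by upstream and downstream ATXN2 gene portions) were treated 24 h at 37 °C with compounds at up to 57 uM. SteadyGlo luminescence gave expression; GF-AFC fluorescence gave viability.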
Potency is read from the fitted curve at half-maximal effect; tags tell the direction and shape of the fitted curve.

Potency, inactive:
CSc1nc2ccc3nc(NC(=O)c4ccc(Cl)s4)sc3c2s1
COc1ccc(N2C(C)=CS/C2=C(/C#N)c2nnc(N3CCOCC3)n2-c2ccccc2)cc1
Cc1cccc(-n2nnnc2SCC(=O)c2cc(C)n(Cc3ccco3)c2C)c1
CCCNc1nc2c(c(=O)n(C)c(=O)n2C)n1Cc1ccc(F)cc1
C=CCC[C@@H](Cc1ccc(F)cc1)C(=O)OC[C@@H](NC(=O)[C@@H](CC=C)CC(=O)N[C@H](CO)Cc1ccccc1)C(C)(C)C
COc1ccc(CCNC(=S)NCc2cccs2)cc1OC
Cc1cc(=O)n(CC(=O)NCCN2CCOCC2)c2c1c(C)nn2-c1ccccc1
COc1ccc(C(=O)NCc2nnc(SCC(=O)Nc3ccccc3)n2-c2ccccc2)cc1

Potency, inconclusive:
Cc1c(C(=O)Nc2ccc3c(c2)OCCO3)sc2ncnc(N3CCCCC3C)c12 (centres undefined) 39.8 µM [inhibitor, single point]
COc1ccc(C(=O)O/N=C(\N)Cc2ccc(Cl)cc2Cl)cc1OC 39.8 µM [inhibitor, single point]
Cc1[nH][nH]c(=O)c1C(c1ccc(-c2ccc(Cl)c(Cl)c2)o1)c1c(C)[nH][nH]c1=O 17.8 µM [inhibitor, partial curve]
CNCCCOc1ccc(Cl)cc1C(C)(C)C 31.6 µM [inhibitor, partial curve, poor fit]
CN(CCc1ccccc1)C(=O)c1cccc(NC(=O)Cc2cccc(NC(=O)C3CCCN(C(=O)CCc4ccccc4)C3)c2)c1 (centres undefined) 31.6 µM [inhibitor, partial curve, poor fit]
CN(CC(=O)Nc1nc2ccccc2s1)S(=O)(=O)c1ccc(Br)cc1 20 µM [inhibitor, partial curve, poor fit]
Cc1cc(=O)c2c(o1)C(=O)c1occc1C2=O 28.2 µM [inhibitor, partial curve]
Cc1cc(C)cc(C(=O)Nc2ccc(NC(=O)Cc3ccccc3)cc2)c1 2.67 µM [inhibitor, partial curve, poor fit]
CC(=O)c1sc2c(c1OC(=O)c1ccccc1)c(=O)n(-c1ccccc1)c(=S)n2-c1ccccc1 10.6 µM [inhibitor, partial curve, poor fit]
COc1cc(C(=S)N2CCN(c3ccccc3Cl)CC2)cc(O)c1O 5.32 µM [inhibitor, partial curve]
Nc1[nH]c(C(=O)c2ccccc2)c(-c2ccc(Br)cc2)c1C(=O)NCCc1c[nH]c2ccccc12 39.8 µM [inhibitor, single point]
